Measured values from PubChem BioAssay (NCI).
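Five compound concentrations were applied to cells in 96-well plates for 48 hours; endpoints were derived by simple linear interpolation of the resulting dose-response curve. At the GI50, growth is halved. TGI marks complete inhibition of growth.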

Tested on: NCI-H322M lung
Test: NCI-60 cell line screen, 48 h

Row | SMILES | GI50 | TGI
1 | O=C(Nc1cc(Cl)cc(Cl)c1)Nc1ccc2oc(=O)ccc2c1 | 2.92 µM | 11 µM
2 | C#Cc1nc(/C=C\CCCCCCC(=O)NO)cs1 | 5.1 µM | 92.8 µM
